Measured values from PMC9537944, “eIF4G1 N-terminal intrinsically disordered domain is a multi-docking station for RNA, Pab1, Pub1, and self-assembly” (Frontiers in Molecular Biosciences, 2022).
Residue numbers refer to the chain shown, from its start. Numbers in names are those of the source. Results are given in words; binding and its absence hold for the method and conditions named. Some entries that bind do so weakly or less than the wild type. Tags and fused reporters may be left off the sequences shown.

T1: Pub1 RRM3 (Saccharomyces cerevisiae) (UniProt P32588)
T1 sequence: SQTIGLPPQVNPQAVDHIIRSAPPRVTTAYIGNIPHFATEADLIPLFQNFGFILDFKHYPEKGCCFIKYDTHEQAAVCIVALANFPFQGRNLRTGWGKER

T2: eIF4G1_(1-249), N-terminal intrinsically disordered region of eIF4G1 (Saccharomyces cerevisiae) (UniProt P39935)
T2 sequence: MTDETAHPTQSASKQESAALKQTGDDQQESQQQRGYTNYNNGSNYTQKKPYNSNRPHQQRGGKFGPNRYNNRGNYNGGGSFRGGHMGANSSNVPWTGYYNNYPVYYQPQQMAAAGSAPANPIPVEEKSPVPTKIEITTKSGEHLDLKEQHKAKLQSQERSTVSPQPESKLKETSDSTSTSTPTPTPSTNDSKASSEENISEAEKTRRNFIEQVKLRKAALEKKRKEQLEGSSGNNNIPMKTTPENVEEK

B1: Pub1 RRM3 (domain or fragment, UniProt P32588 315-414)
chain: T1 sequence
B2: eIF4G1_(1-305) (domain or fragment, UniProt P39935 1-305)
chain: MTDETAHPTQSASKQESAALKQTGDDQQESQQQRGYTNYNNGSNYTQKKPYNSNRPHQQRGGKFGPNRYNNRGNYNGGGSFRGGHMGANSSNVPWTGYYNNYPVYYQPQQMAAAGSAPANPIPVEEKSPVPTKIEITTKSGEHLDLKEQHKAKLQSQERSTVSPQPESKLKETSDSTSTSTPTPTPSTNDSKASSEENISEAEKTRRNFIEQVKLRKAALEKKRKEQLEGSSGNNNIPMKTTPENVEEKGSDKPEVTEKTKPAEEKSAEPEVKQETPAEEGEQGEKGQIKEESTPKVLTFAERLK
B3: eIF4G1_(1-82) (domain or fragment, UniProt P39935 1-82)
chain: MTDETAHPTQSASKQESAALKQTGDDQQESQQQRGYTNYNNGSNYTQKKPYNSNRPHQQRGGKFGPNRYNNRGNYNGGGSFR
B4: eIF4G1_(1-402) (domain or fragment, UniProt P39935 1-402)
chain: MTDETAHPTQSASKQESAALKQTGDDQQESQQQRGYTNYNNGSNYTQKKPYNSNRPHQQRGGKFGPNRYNNRGNYNGGGSFRGGHMGANSSNVPWTGYYNNYPVYYQPQQMAAAGSAPANPIPVEEKSPVPTKIEITTKSGEHLDLKEQHKAKLQSQERSTVSPQPESKLKETSDSTSTSTPTPTPSTNDSKASSEENISEAEKTRRNFIEQVKLRKAALEKKRKEQLEGSSGNNNIPMKTTPENVEEKGSDKPEVTEKTKPAEEKSAEPEVKQETPAEEGEQGEKGQIKEESTPKVLTFAERLKLKKQQKEREEKTEGKENKEVPVQEETKSAIESAPVPPSEQVKEETEVAETEQSNIDESATTPAIPTKSDEAEAEVEAEAGDAGTKIGLEAEIETTTD
B5: eIF4G1_(1-184) (domain or fragment, UniProt P39935 1-184)
chain: MTDETAHPTQSASKQESAALKQTGDDQQESQQQRGYTNYNNGSNYTQKKPYNSNRPHQQRGGKFGPNRYNNRGNYNGGGSFRGGHMGANSSNVPWTGYYNNYPVYYQPQQMAAAGSAPANPIPVEEKSPVPTKIEITTKSGEHLDLKEQHKAKLQSQERSTVSPQPESKLKETSDSTSTSTPTP
B6: eIF4G1_(1-184) Y98A/Y99A (domain or fragment, UniProt P39935 1-184)
chain: B5 chain with Y98A, Y99A
B7: eIF4G1_(1-184) W95A (domain or fragment, UniProt P39935 1-184)
chain: B5 chain with W95A
B8: eIF4G1_(1-184) Y105A/Y106A (domain or fragment, UniProt P39935 1-184)
chain: B5 chain with Y105A, Y106A
B9: eIF4G1_(1-249), N-terminal intrinsically disordered region of eIF4G1 (domain or fragment, Saccharomyces cerevisiae, UniProt P39935 1-249, looked up)
chain: T2 sequence
notes: 15N-labelled where it was the observed partner; Minor isoaspartate forms (12%-14%) are reported at positions 41 and 76; In the intermolecular PRE experiment the second copy was the Q109C mutant carrying a TEMPO spin label; also called eIF4G1 IDR; not shown: thioredoxin A, N-terminal, cleaved; 6xHis, internal (between thioredoxin A and the TEV site), cleaved
B10: eIF4G1_(1-348) (domain or fragment, UniProt P39935 1-348)
chain: MTDETAHPTQSASKQESAALKQTGDDQQESQQQRGYTNYNNGSNYTQKKPYNSNRPHQQRGGKFGPNRYNNRGNYNGGGSFRGGHMGANSSNVPWTGYYNNYPVYYQPQQMAAAGSAPANPIPVEEKSPVPTKIEITTKSGEHLDLKEQHKAKLQSQERSTVSPQPESKLKETSDSTSTSTPTPTPSTNDSKASSEENISEAEKTRRNFIEQVKLRKAALEKKRKEQLEGSSGNNNIPMKTTPENVEEKGSDKPEVTEKTKPAEEKSAEPEVKQETPAEEGEQGEKGQIKEESTPKVLTFAERLKLKKQQKEREEKTEGKENKEVPVQEETKSAIESAPVPPSEQVKE

Each binder was assayed against T1, Pub1 RRM3 (Saccharomyces cerevisiae) (assay: NMR structure; eIF4G1 35-49 fused to the N-terminus of Pub1 RRM3 on one chain; distance restraints from a 2D NOESY (60 ms mixing time), Cyana; both purified).

Row | Binder | binding
1 | GYTNYNNGSNYTQKK (peptide, UniProt P39935 35-49) [eIF4G1_(35-49)] | binds weakly

Each binder was assayed against T2, eIF4G1_(1-249), N-terminal intrinsically disordered region of eIF4G1 (Saccharomyces cerevisiae) (assay: NMR titration; 1H-15N HSQC of 15N-eIF4G1 1-249 with unlabeled Pub1 RRM3 or Pab1 RRM12; signal intensity ratios; NMR buffer (25 mM potassium phosphate pH 6.5, 25 or 150 mM NaCl, 1 mM DTT, 10% D2O), 25°C; both purified).

Row | binding | Binder
2 | binds weakly | B1

What follows are binders tested against T1, Pub1 RRM3 (Saccharomyces cerevisiae) (assay: NMR titration; 1H-15N HSQC of 15N-labelled Pub1 RRM3 titrated with eIF4G1 peptides, eIF4G1 constructs and mutants, or Pab1 RRM12; NMR buffer (25 mM potassium phosphate pH 6.5, 25 or 150 mM NaCl, 1 mM DTT, 10% D2O), 25°C; both purified).

Row | binding | Binder
3 | no binding | STNDSKASSEENISEAEKTRRNFIEQVKLRKAALEKKRKEQLEGSSGN (peptide, UniProt P39935 187-234) [eIF4G1 BOX3 peptide (eIF4G1_(187-234))]
4 | binds weakly | B2
5 | binds weakly | B3
6 | binds weakly | B4
7 | binds | B5
8 | binds weakly | B6
9 | binds weakly | B7
10 | binds weakly | B8
11 | binds weakly | B9
12 | binds weakly | B10
